Laboratory results from the supplement of paper PMC12632987.
The full ranking holds about 2,300 sequences; the median of “median log2 fold change of GCK-ALFA target abundance (FLAG IP / Myc IP barcode read proportion)” is about 0.095, and the lowest 2% start at about -0.47. Some of the results follow.

B1: LC3A_3_1669 (protein)
chain: MEEIEKLLEAMDAAKTADEKLKYLREAAEKLFELYGFEEEKEIVTENLEKLFSQDDEFKEEAVEELREELERVIEEGPEEIPRLVELARTLANESEIEEL
B2: LC3A_3_1783 (protein)
chain: MEERIEELLRELREAGKSEETIEAVRRALEELRERGYEEALEVFVEETRELLDLPDEILLDFAREVLDLVLNEDLSEEELTERIRELARLARLEAEIEEL
B3: LC3A_free_46_2415 (protein)
chain: WRVEVEVWTRAAPREEIEALVERLTEGAREIAEKHGAEVEIEVEFFENEDGTWSALIRITVRVEDRETAERIAQELLDLIDELDDETGLIGLISVDVEEE
B4: LC3A_3_1760 (protein)
chain: MEEFIEEAREELREAGADEELIEIAERALRLLLERGLEETAREFVETLLELLKKSKELALDLARDVLELLETSTLSPEELAKEVRSLINAALAESEIEEL
B5: LC3A_102_127 (protein)
chain: EVEKLKKELLEKVKKEVEKLLEKDKSLSEEEKKKILELAEKLAEAKLENAEIEIQHGFVDIYLEDKAIELQEELEKIDKELAKKINEIIEKGVEEFRKKL
B6: LC3A_28_690 (protein)
chain: NKIEELKKKAEEILEKAAANGEEAFIEINFDEPITPEEAKELMDELEKYIKKYKLPKVDIVINILSPEQTQETIDTLMDEAERLEKKIPNVTVIIALPED
B7: LC3A_3_1579 (protein)
chain: SSSFIEEAEEKLRAAGLSEEVIEKAREVLEALLEKGWVEEAKLVVEGLLRLKDAPTELLLEALEEILEVAKDESLSKEEALEKIKEILSTAESEAEIIEL
B8: LC3A_free_46_2434 (protein)
chain: VKVKIDVSLLHEDEEVLKKAVEELKKKFEEIAKKYGAKLEIKVEFSKDEDGYHFADIKITAEVDTLEKAEKIANEMIKTTDEIVEKYDVSSIISVEIEVE
B9: LC3A_28_661 (protein)
chain: SATRASIEAALKAAKEAKAAGEPAVITLKITGDATQEDIDAAIAAMEEIAELLKDIPGSAIIIDLDGDVAQEHRDALIDKAEELEKKYPNVTVIIALEEV
B10: LC3A_17_563 (protein)
chain: MEELKKEIEELIKELEELIKILAKEDPEAAKKVQKLLEKAKKALKAGDLKEAAKYLAEAFRLAADAFAKLDEEKNGKYANEEMLANGLELRALGLIEKLE
B11: LC3A_28_677 (protein)
chain: SMLKENLEAALKEAKEAAKKGEPTVIEIYVPGNATEEEIEELIKKLEEIAEILKDVEGSAIIIHISKDLKQEHKDKIIDKAEEINEKYPNVTVIIALEEK
B12: LC3A_127_189 (protein)
chain: EIEKLSEELIKTLEELSKLLSSPDFDLEEAKKLAKEALKLAEELEKLDPRFKPVVEDAKQLLKIIEEMATASPAEQEELREHALMLVEGMIIEVESLLLK
B13: LC3A_3_1523 (protein)
chain: MEEIEKRILELLKEMGADEETLAKAKEALKLLKERGYEEALKTFLEELEELKDAPPEVIADFVEDVLELLKTEDLSEEELKEKIKEIARIAKSESEIEEL
B14: LC3A_28_1225 (protein)
chain: AAVDAEIAAARAAMAAAAAAGEEATITVKITGKTTLADVKRLMEALRAIVAEHAHLPRISIIIDLSGKVTQEQIDAAAEGGERIEKEFPNVTVILALDEN
B15: LC3A_3_1553 (protein)
chain: MEELKKKLLEELKKAGASEEVLKAAEEAFEALIKRGYEEAAKTLAEEVKKMLDLPDEILLDFLKDVLELVKTEDLNEEETIKKIKELATIAKNESEIIEL
B16: LC3A_free_39_2271 (protein)
chain: SEEEREEIVRGLEELLARAPEVSEEVRERLLEIAREDPEVGRVIRDYLARALEEGRDVAALAERVVATYEELRAAGKSREEIEEEVRLEAAELVNLEPLD
B17: LC3A_3_1822 (protein)
chain: MDEALAATLAELRAAGASEATLAAVRRTFAALRAKGYDEAARTFAELMREMRHLPSELLLEFAEDVLELVESRDLSEEELTAEIRRLARLYENEGEIIEL
B18: LC3A_28_635 (protein)
chain: SAIDEELAALRAAAEAAAAAGEEAVLTLKVGGDTDEEDVEKIIATLEEVAAITAGLKSTSIIIDIDGKVKQEHIDKLMDAGEEIEKKYPNVTVIFALDEE
B19: LC3A_28_1190 (protein)
chain: SALEEQLKKALEEAKEAAAKGEPAVITIEVPGDANQEDIEKVIKAMEEIAEILKDIPGSAIIVDLDGGVKQEHEDKIAEKAEEIEKKYPNVTVILALEER

Biological target: MAP1LC3A, Q9H492
Test: median log2 fold change of GCK-ALFA target abundance (FLAG IP / Myc IP barcode read proportion) (log2 ratio); each designed protein is fused to an ALFA-tag nanobody in HEK293 cells to bring the named protein to FLAG-tagged glucokinase (GCK); Myc marks an untargeted standard; higher = target protein stabilised (more abundant)
Conditions: target protein: 3xFLAG-MCP-GCK-ALFA reporter; HEK293 landing pad (RPLP)
Procedure: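 LABEL-seq trans screen in HEK293 landing-pad cells. Each de novo designed 100-aa effector handle, binding the indicated effector (E3 ligase, DUB or autophagy protein), is fused to a constant NbALFA target handle and induced with 2 ug/mL doxycycline. A FLAG-MCP-GCK-ALFA target and a Myc-MCP standard reporter were transfected, and after 48 h circRNA barcodes were recovered by anti-FLAG and anti-Myc IP and sequenced. The value is the median across barcodes (at least 3 per design) of log2(FLAG/Myc read-proportion ratio), with the two transfection replicates pooled. Negative values mean degradation and positive values mean stabilisation of the target.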

Row | Binder | median log2 fold change
1 | B1 | 0.072
2 | B2 | 0.184
3 | B3 | -0.11
4 | B4 | 0.157
5 | B5 | -0.519
6 | B6 | 0.316
7 | B7 | 0.242
8 | B8 | 0.167
9 | B9 | -0.185
10 | B10 | -0.0312
11 | B11 | 0.274
12 | B12 | 0.153
13 | B13 | 0.315
14 | B14 | 0.191
15 | B15 | 0.149
16 | B16 | 0.327
17 | B17 | 0.097
18 | B18 | -0.119
19 | B19 | 0.042
